# From paper PMC9911399, “Two distinct binding modes provide the RNA-binding protein RbFox with extraordinary sequence specificity”
# Positions count from the first letter of the chain named. The list shows a part of the results.
# T1: RBFOX1 RRM (Homo sapiens, UniProt Q9NWB1 109-208)
# T1 sequence: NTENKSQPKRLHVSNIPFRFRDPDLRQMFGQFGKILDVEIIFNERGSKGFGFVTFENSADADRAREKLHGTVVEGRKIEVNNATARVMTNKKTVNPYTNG
# B1: UGCUAUC (DNA:RNA)
# RNA: GGGAGACCGGAAUUCAGAUUGUCCUGCUAUCUUAAAUCCCGUCGUAGCCACCA
# DNA 1: CAATCTGAATTCCGGTCTCCC
# DNA 2: TGGTGGCTACGACGGGATT
# B2: UCCGCAA (DNA:RNA)
# RNA: B1 RNA with G26C, U28G, A29C, U30A, C31A
# DNA 1: CAATCTGAATTCCGGTCTCCC
# DNA 2: TGGTGGCTACGACGGGATT
# B3: ACGGCCC (DNA:RNA)
# RNA: B1 RNA with U25A, G26C, C27G, U28G, A29C, U30C
# DNA 1: CAATCTGAATTCCGGTCTCCC
# DNA 2: TGGTGGCTACGACGGGATT
# B4: AUUGAUG (DNA:RNA)
# RNA: B1 RNA with U25A, G26U, C27U, U28G, C31G
# DNA 1: CAATCTGAATTCCGGTCTCCC
# DNA 2: TGGTGGCTACGACGGGATT
# B5: UGUCCAG (DNA:RNA)
# RNA: B1 RNA with C27U, U28C, A29C, U30A, C31G
# DNA 1: CAATCTGAATTCCGGTCTCCC
# DNA 2: TGGTGGCTACGACGGGATT
# B6: CAAUCAG (DNA:RNA)
# RNA: B1 RNA with U25C, G26A, C27A, A29C, U30A, C31G
# DNA 1: CAATCTGAATTCCGGTCTCCC
# DNA 2: TGGTGGCTACGACGGGATT
# B7: CACGGGC (DNA:RNA)
# RNA: B1 RNA with U25C, G26A, U28G, A29G, U30G
# DNA 1: CAATCTGAATTCCGGTCTCCC
# DNA 2: TGGTGGCTACGACGGGATT
# B8: AUUUCUG (DNA:RNA)
# RNA: B1 RNA with U25A, G26U, C27U, A29C, C31G
# DNA 1: CAATCTGAATTCCGGTCTCCC
# DNA 2: TGGTGGCTACGACGGGATT
# B9: AGAGCAG (DNA:RNA)
# RNA: B1 RNA with U25A, C27A, U28G, A29C, U30A, C31G
# DNA 1: CAATCTGAATTCCGGTCTCCC
# DNA 2: TGGTGGCTACGACGGGATT
# B10: GCUGGGA (DNA:RNA)
# RNA: GGGAGACCGGAAUUCAGAUUGUCCGCUGGGAUUAAAUCCCGUCGUAGCCACCA
# DNA 1: CAATCTGAATTCCGGTCTCCC
# DNA 2: TGGTGGCTACGACGGGATT
# B11: CGGUUUC (DNA:RNA)
# RNA: B1 RNA with U25C, C27G, A29U
# DNA 1: CAATCTGAATTCCGGTCTCCC
# DNA 2: TGGTGGCTACGACGGGATT
# B12: CACUAGG (DNA:RNA)
# RNA: B1 RNA with U25C, G26A, U30G, C31G
# DNA 1: CAATCTGAATTCCGGTCTCCC
# DNA 2: TGGTGGCTACGACGGGATT
# B13: GACGUAA (DNA:RNA)
# RNA: B10 RNA with C26A, U27C, G29U, G30A
# DNA 1: CAATCTGAATTCCGGTCTCCC
# DNA 2: TGGTGGCTACGACGGGATT
# B14: UAACGUC (DNA:RNA)
# RNA: B1 RNA with G26A, C27A, U28C, A29G
# DNA 1: CAATCTGAATTCCGGTCTCCC
# DNA 2: TGGTGGCTACGACGGGATT
# B15: AGGCAAC (DNA:RNA)
# RNA: B1 RNA with U25A, C27G, U28C, U30A
# DNA 1: CAATCTGAATTCCGGTCTCCC
# DNA 2: TGGTGGCTACGACGGGATT
# B16: CUCUGGC (DNA:RNA)
# RNA: B1 RNA with U25C, G26U, A29G, U30G
# DNA 1: CAATCTGAATTCCGGTCTCCC
# DNA 2: TGGTGGCTACGACGGGATT
# B17: GGAUGUA (DNA:RNA)
# RNA: B10 RNA with C26G, U27A, G28U, G30U
# DNA 1: CAATCTGAATTCCGGTCTCCC
# DNA 2: TGGTGGCTACGACGGGATT
# B18: CACCGUU (DNA:RNA)
# RNA: B1 RNA with U25C, G26A, U28C, A29G, C31U
# DNA 1: CAATCTGAATTCCGGTCTCCC
# DNA 2: TGGTGGCTACGACGGGATT
# B19: UGGUAAA (DNA:RNA)
# RNA: B1 RNA with C27G, U30A, C31A
# DNA 1: CAATCTGAATTCCGGTCTCCC
# DNA 2: TGGTGGCTACGACGGGATT
# B20: AGAAAGC (DNA:RNA)
# RNA: B1 RNA with U25A, C27A, U28A, U30G
# DNA 1: CAATCTGAATTCCGGTCTCCC
# DNA 2: TGGTGGCTACGACGGGATT
# B21: AUAAUGU (DNA:RNA)
# RNA: B10 RNA with G25A, C26U, U27A, G28A, G29U, A31U
# DNA 1: CAATCTGAATTCCGGTCTCCC
# DNA 2: TGGTGGCTACGACGGGATT
# B22: UGUAACC (DNA:RNA)
# RNA: B1 RNA with C27U, U28A, U30C
# DNA 1: CAATCTGAATTCCGGTCTCCC
# DNA 2: TGGTGGCTACGACGGGATT
# B23: ACUACCC (DNA:RNA)
# RNA: B10 RNA with G25A, G28A, G29C, G30C, A31C
# DNA 1: CAATCTGAATTCCGGTCTCCC
# DNA 2: TGGTGGCTACGACGGGATT
# B24: UGUUACG (DNA:RNA)
# RNA: B1 RNA with C27U, U30C, C31G
# DNA 1: CAATCTGAATTCCGGTCTCCC
# DNA 2: TGGTGGCTACGACGGGATT
# B25: AACCUCG (DNA:RNA)
# RNA: B1 RNA with U25A, G26A, U28C, A29U, U30C, C31G
# DNA 1: CAATCTGAATTCCGGTCTCCC
# DNA 2: TGGTGGCTACGACGGGATT
# B26: CAUGGCA (DNA:RNA)
# RNA: B10 RNA with G25C, C26A, G30C
# DNA 1: CAATCTGAATTCCGGTCTCCC
# DNA 2: TGGTGGCTACGACGGGATT
# B27: ACGCUUC (DNA:RNA)
# RNA: B1 RNA with U25A, G26C, C27G, U28C, A29U
# DNA 1: CAATCTGAATTCCGGTCTCCC
# DNA 2: TGGTGGCTACGACGGGATT
# B28: CGAUGUC (DNA:RNA)
# RNA: B1 RNA with U25C, C27A, A29G
# DNA 1: CAATCTGAATTCCGGTCTCCC
# DNA 2: TGGTGGCTACGACGGGATT
# B29: AUUGCGU (DNA:RNA)
# RNA: B10 RNA with G25A, C26U, G29C, A31U
# DNA 1: CAATCTGAATTCCGGTCTCCC
# DNA 2: TGGTGGCTACGACGGGATT
# B30: CUCCUCA (DNA:RNA)
# RNA: B10 RNA with G25C, C26U, U27C, G28C, G29U, G30C
# DNA 1: CAATCTGAATTCCGGTCTCCC
# DNA 2: TGGTGGCTACGACGGGATT
# B31: UGGGUAC (DNA:RNA)
# RNA: B1 RNA with C27G, U28G, A29U, U30A
# DNA 1: CAATCTGAATTCCGGTCTCCC
# DNA 2: TGGTGGCTACGACGGGATT
# Molecular target: T1, RBFOX1 RRM
# Assay: EMSA; HiTS-Eq, 1 nM pool, 10 min; buffer printed only for the single-RNA assays: 10 mM Tris pH 7.5, 150 mM NaCl, 3.4 mM EDTA, 0.001% NP-40, 30 C
# Conditions: tags: His6 N-terminal (pET28a); label: 5' 32P
# Summary of the method: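 A pool of RNA with 7 randomized nucleotides, 5′-radiolabelled and with DNA-annealed flanks, was equilibrated at 1 nM for 10 min in 50 µL with purified RbFox RRM, wild type or mutant, across increasing protein concentrations. Free RNA was separated by 8% native PAGE, excised, reverse-transcribed, barcoded by PCR and sequenced. Relative association constants were obtained from read-count changes of each RNA species versus the control reaction and normalised to the cognate motif.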
row,Binder,binding signal
1,B1,0.014 KA relative to UGCAUGU
2,B2,0.00978 KA relative to UGCAUGU
3,B3,0.00325 KA relative to UGCAUGU
4,B4,0.0141 KA relative to UGCAUGU
5,B5,0.0159 KA relative to UGCAUGU
6,B6,0.00649 KA relative to UGCAUGU
7,B7,0.00242 KA relative to UGCAUGU
8,B8,0.0168 KA relative to UGCAUGU
9,B9,0.00873 KA relative to UGCAUGU
10,B10,0.0174 KA relative to UGCAUGU
11,B11,0.00701 KA relative to UGCAUGU
12,B12,0.00412 KA relative to UGCAUGU
13,B13,0.00966 KA relative to UGCAUGU
14,B14,0.0107 KA relative to UGCAUGU
15,B15,0.00986 KA relative to UGCAUGU
16,B16,0.0159 KA relative to UGCAUGU

row,Binder,binding signal
1,B17,0.015 KA relative to UGCAUGU
2,B18,0.0019 KA relative to UGCAUGU
3,B19,0.00876 KA relative to UGCAUGU
4,B20,0.00546 KA relative to UGCAUGU
5,B21,0.00669 KA relative to UGCAUGU
6,B22,0.00753 KA relative to UGCAUGU
7,B23,0.00249 KA relative to UGCAUGU
8,B24,0.0175 KA relative to UGCAUGU
9,B25,0.00169 KA relative to UGCAUGU
10,B26,0.0103 KA relative to UGCAUGU
11,B27,0.00748 KA relative to UGCAUGU
12,B28,0.0174 KA relative to UGCAUGU
13,B29,0.0121 KA relative to UGCAUGU
14,B30,0.0035 KA relative to UGCAUGU
15,B31,0.0257 KA relative to UGCAUGU
